One may read the inhibition as the relative decrease from the control value, in per cent.

The results in this text go back to PubChem BioAssay AID485344 (National Center for Advancing Translational Sciences (NCATS), 2010).

About 6,900 (2%) of roughly 340,000 compounds were called active. Rule as the data show it: active = inhibition above about 30%; inactive = below that, where a call was filed. The list shows a part of the results, in another mix than the full data. Where no call is shown, the source filed none.

Chain of UniProt P14416 (P14416 whole entry, looked up): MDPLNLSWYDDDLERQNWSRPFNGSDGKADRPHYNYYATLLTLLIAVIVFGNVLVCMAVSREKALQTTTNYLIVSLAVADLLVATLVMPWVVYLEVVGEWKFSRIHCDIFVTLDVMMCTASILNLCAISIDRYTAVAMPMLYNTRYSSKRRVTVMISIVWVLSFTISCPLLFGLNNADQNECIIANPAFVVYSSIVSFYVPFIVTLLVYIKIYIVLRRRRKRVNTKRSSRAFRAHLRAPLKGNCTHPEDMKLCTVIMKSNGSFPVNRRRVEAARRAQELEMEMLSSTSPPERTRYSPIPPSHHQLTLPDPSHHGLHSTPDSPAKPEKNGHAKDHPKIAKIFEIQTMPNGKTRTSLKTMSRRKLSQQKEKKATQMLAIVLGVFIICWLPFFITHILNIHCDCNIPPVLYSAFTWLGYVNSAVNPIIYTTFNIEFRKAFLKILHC

This experiment deals with D(2) dopamine receptor (Homo sapiens) (UniProt P14416). As to the kind of experiment: HTS Assay for Allosteric Antagonists of the Human D2 Dopamine Receptor: Primary Screen for Antagonists. Also: 0% is about no effect. The following applies: HEK293 TREx D2 cells, calcium flux, dopamine EC80; at 10 µM; stronger effect = higher value. The method in brief:
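Tetracycline-induced HEK293 TREx cells expressing D2 receptor forced-coupled to calcium signalling, loaded with no-wash calcium dye. Compounds added and calcium flux read 180 s, then dopamine added at EC80 and read a further 180 s.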
On the technique in general: Calcium assays in cells follow changes in intracellular calcium, usually with a dye or a luminescent sensor.
With `Oc1c(C(c2ccccc2F)N2CCN(c3ccccc3F)CC2)sc2nc(-c3ccco3)nn12` (configuration not stated), the inhibition was -13.2%. As for `Cc1ccccc1N1CCN(S(=O)(=O)c2ccccc2)CC1`, the inhibition worked out at 7.5%. As to `COc1cc2nc(Nc3cccc(C)c3)nc(N)c2cc1OC`, the inhibition was determined as 0.434%. In the case of `CCC(C)Sc1nc2c(c(=O)[nH]c(=O)n2C)n1CC(O)COc1ccccc1C` (configuration not stated) it was active: 30.1%; in that of `Cc1ccc(C(=O)NCC(c2ccco2)S(=O)(=O)c2cccs2)cc1C` (configuration not stated), 19.2%; in that of `CCCCN(Cc1cc2ccccc2[nH]c1=O)C(=O)c1cccc(Cl)c1`, -7.09%. On to `COC(=O)c1sc(-c2ccccc2)cc1NC(=O)Nc1ccc(Cl)cc1`, for which the inhibition was 20.4%. The same measure for `CC1=C(C(=O)NCc2ccccc2C)C2(CCCCCC2)OC1=O`: -25.5%; for `O=C(Oc1ccc(F)cc1)c1nc(SCc2ccc(F)cc2)ncc1Cl`: -8.72%. As for `COc1ccc(NC(=O)CCS(=O)(=O)c2ccc3c(c2)oc(=O)n3C)cc1OC`, the inhibition was -1.34%. The same measure for `COc1ccc(-c2cc3c(=O)n(CC(=O)Nc4cc(F)ccc4F)ccn3n2)cc1OC`: 13.3%; for `CCc1ccc(NC(=O)[C@H](CSCc2ccccc2)N2Cc3ccccc3C2=O)cc1`: 1.43%. On to `Cc1nn(-c2ccccc2)c2sc(C(=O)Nc3ccc(Br)cc3)cc12`, for which the inhibition came to 13.7%. In the case of `O=C1COc2ccc(-c3cc(-c4ccccc4)c4c(n3)-c3ccccc3OC4)cc2N1`, the inhibition stood at 0.38%.

With `O=S(=O)(c1ccc(Cl)cc1)N(CCCN1CCOCC1)Cc1cccs1`, the inhibition was active: 42.8%. For `CN(C)c1ccc(-c2nc(-c3cccs3)c(-c3cccs3)[nH]2)cc1`, the inhibition is 18.9%.

Take `CN1CCN(CCCN2c3ccccc3Sc3ccc(S(=O)(=O)N(C)C)cc32)CC1`: the inhibition is active: 81.6%. In the case of `CCCn1c(SCC(O)c2ccccc2)nc2ccccc21` (configuration not stated) it was 3.27%; in that of `COc1cccc(CNC(=O)CCCn2ncn3c(cc4occc43)c2=O)c1`, 7.37%. For `Cc1cccc(C(c2sc3nc(-c4ccco4)nn3c2O)N2CCN(c3ccccc3F)CC2)c1` (configuration not stated), the inhibition is -5.35%.

`CCOC(=O)C1CCCN(S(=O)(=O)c2cc(Br)cc3c2N(C(C)=O)CC3)C1` (configuration not stated): the inhibition was -21%. In the case of `CCOc1ccc(NC(=O)CCN2CCN(c3ccccc3F)CC2)cc1`, the inhibition was active: 76.9%. The same measure for `CC1CN(CCCCN2C(=O)c3ccccc3C2=O)CC(C)O1` (configuration not stated): active: 39.9%. On to `COC(=O)c1ccc(NS(=O)(=O)c2ccc3[nH]c4c(c3c2)CCCC4)cc1`, for which the inhibition was -20.3%.

As for `CCC(=O)N1CCc2cc(S(=O)(=O)NCCC(=O)NCc3ccc(C)cc3)ccc21`, the inhibition was -7.14%. For the molecule `COc1ccccc1C(=O)OCc1cc(=O)n2nc(-c3cccs3)sc2n1`, the inhibition was -0.748%. For the molecule `CCOc1ccc(-c2cc(NC(=O)Nc3ccc(Cl)cc3)c(C(=O)OC)s2)cc1`, the inhibition is -1.81%. In the case of `CCCSc1ncc(Cl)c(C(=O)N(Cc2cccc(Cl)c2)C2CCS(=O)(=O)C2)n1` (configuration not stated) it was -11.7%; in that of `CCOC(=O)c1c(NC(=O)CCCOc2ccc(C(C)(C)C)cc2)sc2c1CCCC2`, 8.78%; in that of `COc1ccc(OC)c(NC(=O)c2cnc(N3CCCCC3)c3ccccc23)c1`, -7.23%.

As to `O=C(CN1CCCN(Cc2ccc(F)cc2)S1(=O)=O)Nc1ccc2c(c1)OCCO2`, the inhibition is 9.43%. Consider `CCCN(CCC)CCCNC(=O)Cn1ncc2c3ccccc3n(Cc3ccccc3F)c2c1=O`, for which the inhibition came out at 1.9%.

On to `CCc1nn(CCCC(=O)NCc2ccc(C)cc2)c(=O)c2cc3occc3n12`, for which the inhibition turned out to be 17.2%. Take `CC(=O)c1nn(-c2ccc(OC(F)(F)F)cc2)nc1Nc1ccccc1`: the inhibition was 17.1%. Regarding `CCNC(=S)N1CCN(CCN2C(=O)c3cccc4cccc(c34)C2=O)CC1`, the inhibition is active: 43.5%. The same measure for `CCOC(=O)N1CCC(NC(=O)c2cnn(-c3ccc(C)cc3C)c2C2CCN(C(=O)OC(C)(C)C)CC2)CC1`: 7.11%; for `CC(=O)Nc1cccc(Nc2nc3ccccc3n3c(C)nnc23)c1`: -15.2%; for `Cc1ccc(NC(=O)C(Cc2ccccc2)NS(=O)(=O)c2ccc3c(c2)CCC(=O)N3)cc1` (configuration not stated): 20.6%. For the molecule `Cc1cc(C)cc(NC(=O)CSc2nc3ncccc3[nH]2)c1`, the inhibition was 8%. Regarding `Cc1ccc(NC(=O)C(=O)NCC(c2ccc3c(c2)OCO3)N2CCN(C)CC2)c(C)c1` (configuration not stated), the inhibition is 12.2%. In the case of `COc1ccc(OC)c2sc(NC(=O)C3CC3)nc12`, the inhibition is active: 64.9%.

Regarding `CC(=O)c1cccc(NC(=O)N[C@@H](CC(C)C)C(=O)O)c1`, the inhibition was active: 33.4%. Regarding `CN(C)S(=O)(=O)c1cccc(CNCC2COc3ccccc3O2)c1` (configuration not stated), the inhibition was active: 106%.

For `CS(=O)(=O)c1cccc(-c2nnc(NC(=O)c3ccc4c(c3)OCCO4)o2)c1`, the inhibition was -2.35%.

As for `CCc1ccc(NC(=O)CC2C(=O)N(c3ccc(C)cc3)C(=O)N2C2CCCC2)cc1` (configuration not stated), the inhibition was 7.58%. Consider `CC(C)(C)c1ccc(Oc2nc3ccccn3c(=O)c2/C=C(\C#N)c2nc3ccccc3s2)cc1`, for which the inhibition is -3.54%. In the case of `COc1ccc2c(c1)CCc1sc(NC(=O)c3ccc(Br)cc3)nc1-2` it was -6.96%; in that of `COc1ccc(N2CCN(S(=O)(=O)CCNC(=O)c3cc(=O)c4ccccc4o3)CC2)cc1`, -19.7%; in that of `CN(C)c1oc(-c2ccc(COc3ccccc3)o2)nc1C#N`, -11.4%.

As for `CC(C)CN(CCNC(=O)c1cn(C)c2ccc(S(=O)(=O)N3CCCCCC3)cc2c1=O)CC(C)C`, the inhibition was -3.75%. On to `COc1cc(NC(=O)Cn2ccn(-c3cc(C)cc(C)c3)c(=O)c2=O)cc(OC)c1`, for which the inhibition was found to be 14.8%. `Cc1cc(C)cc(NC(=O)CSc2nc(=O)[nH]c3c2CCC3)c1`: the inhibition was -12.1%. In the case of `O=S(=O)(c1cccc(Cl)c1)c1nnn2c1nc(NC1CCCC1)c1sccc12`, the inhibition was -4.53%. Consider `COC(=O)c1ccc(NC(=O)C2CCN(S(=O)(=O)c3ccc4c(c3)CCCN4C(C)=O)CC2)cc1`, for which the inhibition came to 4.19%. Take `COc1cc(NC(=O)CSc2nc3nc(C)c(Cc4ccccc4)c(C)n3n2)cc(OC)c1OC`: the inhibition was -4.87%. `CCc1nnc2n1N(C(C)=O)C(c1ccc(C(C)(C)C)cc1)=C(C(C)=O)S2`: the inhibition was -26.2%. Regarding `Cc1nc(N2CCCC2)ncc1C(=O)NCc1ccccc1Cl`, the inhibition was -9.98%.

Turning to `CCc1ccc(CNC(=O)c2cc3c(s2)-c2ccccc2OC3)cc1`, the inhibition turned out to be 28.2%.

In the case of `CCOC(=O)c1cc2c(=O)n3ccccc3nc2n(CC2CCCO2)c1=NC(=O)c1cc(C)cc(C)c1` (configuration not stated), the inhibition was found to be 22.2%. Take `Cc1[nH]c2ccccc2c1C1(O)C(=O)N(Cc2ccc(Cl)cc2)c2ccccc21` (configuration not stated): the inhibition turned out to be 3.02%. As to `CCc1cccc(C)c1Nc1c(-c2cccc(O)c2)nc2sccn12`, the inhibition worked out at 3.28%. Regarding `COc1ccc(CC(=O)Nc2sc3c(c2C(=O)Nc2ccc(C)cc2)CCCCC3)cc1`, the inhibition is -1.16%.

Regarding `Cc1[nH]c2c(C)cccc2c1CCNC(=O)c1cc2ccccc2oc1=O`, the inhibition is 1.85%. Take `Cc1ccc(N(CC(=O)Nc2ccc(OC(F)(F)F)cc2)S(=O)(=O)c2c(C)noc2C)cc1`: the inhibition was -2.03%.

For `COc1cccc(N2CCN(C(=O)c3nc(-c4ccc(Cl)cc4)n4c3CCCCC4)CC2)c1`, the inhibition was 3.33%. In the case of `Cc1ccc(O)c(NC(=O)c2nc3nc(C)cc(C(F)F)n3n2)c1` it was 1.29%.

As to `O=c1oc2ccc3ccccc3c2cc1-c1nnc(Nc2cc(C(F)(F)F)ccc2Cl)s1`, the inhibition is 6.12%.

As to `CS(=O)(=O)Oc1ccc2c(c1)O/C(=C\C=C\c1ccccc1)C2=O`, the inhibition was active: 37.5%. The same measure for `Cc1ccc(NC(=O)c2ccc(CN3CC(=O)N4CCCCC4C3=O)cc2)cc1C` (configuration not stated): 2.86%.

Consider `CCOc1ccc(-n2c(=O)c3sc4ccccc4c3n(Cc3ccc(F)cc3)c2=O)cc1`, for which the inhibition was -12.1%. Take `CCc1ccccc1NC(=O)C(=O)NCCc1sc(-c2cccc(C)c2)nc1C`: the inhibition was -10.3%. `COCCCNc1ncnc2c1nnn2C`: the inhibition is -11.6%. In the case of `CCn1c(SCC(=O)Nc2ccc(C)c(C)c2)nnc1-c1nonc1NC(C)=O`, the inhibition is -7.11%.

Take `CC(C)c1cnc2c(c1SCC(=O)Nc1cccc([N+](=O)[O-])c1)c(=O)n(C)c(=O)n2C`: the inhibition turned out to be 15.8%.

As for `CCCCC(CC)Cn1c(Oc2ccccc2)nc2c1c(=O)n(C)c(=O)n2C` (configuration not stated), the inhibition was 0.0708%. `Cc1ccc(Cl)cc1N1CCN(S(=O)(=O)c2ccc3c(c2)CC(=O)N3C)CC1`: the inhibition is -0.457%. Regarding `COc1cc(-c2nnc(SCC(=O)Nc3cccc(C#N)c3)o2)cc(OC)c1OC`, the inhibition was 7.95%. The same measure for `CCOC(=O)C1CCCN(S(=O)(=O)c2ccc3c(c2)N(C)C(=O)CC(=O)N3C)C1` (configuration not stated): 3.08%; for `O=C(Cn1ncc2c3ccccc3n(Cc3ccc(Cl)cc3)c2c1=O)NC1CCCCCC1`: 2.55%; for `CCc1ccc(CNC(=O)c2cnc3sc(N(CC)CC)nn3c2=O)cc1`: 15.8%. For `COCCCNC(=O)Cn1c(=O)n(-c2ccc(Cl)cc2)c(=O)c2c3c(sc21)CCCCC3`, the inhibition was 10.8%.

On to `CC(C)(C)Nc1c(N)c(=O)oc2ccccc12`, for which the inhibition was active: 33.7%.

For the molecule `COc1ccc(CCNC(=O)CN2C(=O)COc3ccc(S(=O)(=O)N4CCCCCC4)cc32)cc1OC`, the inhibition was found to be 3.83%. As for `Cc1ccc(OCC(=O)Nc2ccccc2C(=O)OCc2cc(=O)n3c(C)csc3n2)cc1`, the inhibition came to 13.2%. As to `Cc1ccc(-c2nnc3ccccc3c2C(=O)Nc2cccc(C(F)(F)F)c2)cc1`, the inhibition was -8%. For the molecule `CC1=C(C(=O)Nc2ccc(C)cc2C)C(c2ccc[nH]2)n2ncnc2N1` (configuration not stated), the inhibition was 23.4%. In the case of `CSc1nnc2c(n1)OC(c1cccc(O)c1Cl)Nc1ccccc1-2` (configuration not stated) it was 4.74%; in that of `N#Cc1cc2c(=O)n3ccccc3nc2n(-c2nnc(SCc3ccccc3F)s2)c1=O`, 2.98%; in that of `CCOC(=O)c1noc2nc(C)n(CC(=O)Nc3ccc(Br)cc3C)c(=O)c12`, 23.3%.

As for `COc1ccc(OC)c(-n2cnc3cc(C(=O)NCCc4ccccc4)ccc32)c1`, the inhibition worked out at 4.83%. In the case of `Cc1ccc(CN(C(=O)c2ccc([N+](=O)[O-])cc2)c2ccccn2)cc1`, the inhibition was 11.9%. As for `Cc1cc(Nc2cccc(C(F)(F)F)c2)nc2ccc(NC(=O)c3cncc(Br)c3)cc12`, the inhibition was -6.38%. For the molecule `CN(CCC1CCOCC1)C(=O)c1cc(COc2c(F)cccc2F)on1`, the inhibition is active: 30.5%. As for `O=C(Nc1ccc(Cl)c(C(F)(F)F)c1)c1cc2nc(-c3ccc4c(c3)OCO4)cc(C(F)(F)F)n2n1`, the inhibition stood at 5.86%. The same measure for `CCCn1ccc2c(OCC(=O)Nc3ccc(C(F)(F)F)cc3)cccc2c1=O`: 25.7%. Consider `CCC(O)c1nc2ccccc2n1CCOc1cc(C)cc(C)c1` (configuration not stated), for which the inhibition was 3.67%. In the case of `CCOc1ccccc1C(=O)Nc1cc2c(cc1N1CCCCC1)n(C)c(=O)n2C` it was -24.6%.
